This note sets out measurements from PMC5700166.

Holding throughout (test): protein-binding microarray (PBM)
Common to all, as to conditions: PBM: ~300 nM protein, 6 mM HEPES pH 7.8, 80 mM KCl, 0.5 mM EDTA, 0.5 mM EGTA, 6% glycerol, 35 ng/ul poly-dIdC, 1% milk, 1 h, room temperature; Ap Aiptasia and Nv Nematostella (sea anemones) / Co Capsaspora / Aq Amphimedon (sponge) / Dm Drosophila / Hu human; RHD is the Rel homology domain; high values mean tight binding; most listed sequences are background and not binding sites; double strand, one strand shown

In one assay the target is T1, GST-Ap-NF-kB RHD (UniProt A0A913YAJ5).
T1 sequence: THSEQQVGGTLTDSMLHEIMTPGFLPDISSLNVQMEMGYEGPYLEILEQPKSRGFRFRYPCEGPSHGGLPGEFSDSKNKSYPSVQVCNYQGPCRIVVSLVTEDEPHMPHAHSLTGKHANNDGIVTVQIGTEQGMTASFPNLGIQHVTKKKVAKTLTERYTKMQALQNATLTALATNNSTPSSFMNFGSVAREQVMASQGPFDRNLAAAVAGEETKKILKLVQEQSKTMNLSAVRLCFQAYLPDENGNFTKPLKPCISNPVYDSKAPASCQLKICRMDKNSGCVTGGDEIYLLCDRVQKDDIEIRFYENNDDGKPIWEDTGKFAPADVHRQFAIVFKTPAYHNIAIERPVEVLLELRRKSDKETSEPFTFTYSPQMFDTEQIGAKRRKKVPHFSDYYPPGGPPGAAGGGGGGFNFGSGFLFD

Assay [1] concerns the target T2, GST-Nv-NF-kB (Cys allele) (UniProt E5G601).
T2 sequence: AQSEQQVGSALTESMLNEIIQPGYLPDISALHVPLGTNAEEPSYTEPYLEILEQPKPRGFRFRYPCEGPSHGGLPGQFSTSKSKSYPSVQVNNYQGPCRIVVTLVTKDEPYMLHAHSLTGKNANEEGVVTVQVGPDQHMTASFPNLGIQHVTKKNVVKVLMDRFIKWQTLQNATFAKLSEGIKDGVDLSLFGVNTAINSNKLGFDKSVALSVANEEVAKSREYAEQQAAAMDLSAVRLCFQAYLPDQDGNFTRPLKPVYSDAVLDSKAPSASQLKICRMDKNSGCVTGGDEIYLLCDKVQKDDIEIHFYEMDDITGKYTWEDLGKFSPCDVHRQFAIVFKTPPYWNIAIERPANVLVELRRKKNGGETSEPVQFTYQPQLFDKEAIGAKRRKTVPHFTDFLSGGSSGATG

The next assay deals with T3, GST-Co-NF-kB (UniProt F1ARL5).
T3 sequence: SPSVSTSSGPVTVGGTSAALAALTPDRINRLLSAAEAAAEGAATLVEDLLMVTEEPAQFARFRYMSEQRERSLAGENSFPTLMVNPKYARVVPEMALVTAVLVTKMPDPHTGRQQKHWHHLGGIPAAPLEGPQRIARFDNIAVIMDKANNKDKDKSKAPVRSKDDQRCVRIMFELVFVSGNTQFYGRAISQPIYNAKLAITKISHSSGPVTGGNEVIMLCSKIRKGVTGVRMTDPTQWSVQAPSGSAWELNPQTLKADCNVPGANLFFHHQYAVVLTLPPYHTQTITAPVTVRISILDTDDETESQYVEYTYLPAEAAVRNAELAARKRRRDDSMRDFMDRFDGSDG

The next assay addresses T4, GST-Dm-Relish (UniProt Q94527).
T4 sequence: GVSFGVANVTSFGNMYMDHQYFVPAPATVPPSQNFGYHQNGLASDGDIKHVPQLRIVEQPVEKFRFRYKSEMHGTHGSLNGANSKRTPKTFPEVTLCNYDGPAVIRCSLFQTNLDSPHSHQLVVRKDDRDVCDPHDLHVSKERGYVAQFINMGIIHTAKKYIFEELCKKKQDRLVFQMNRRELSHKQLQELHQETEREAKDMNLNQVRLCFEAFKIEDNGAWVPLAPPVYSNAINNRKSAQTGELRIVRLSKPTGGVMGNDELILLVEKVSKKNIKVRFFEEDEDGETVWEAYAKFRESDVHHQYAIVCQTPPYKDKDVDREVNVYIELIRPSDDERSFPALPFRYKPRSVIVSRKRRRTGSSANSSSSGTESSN

In a further assay the target is T5, GST-Aq-NF-kB (UniProt A9Y5G7).
T5 sequence: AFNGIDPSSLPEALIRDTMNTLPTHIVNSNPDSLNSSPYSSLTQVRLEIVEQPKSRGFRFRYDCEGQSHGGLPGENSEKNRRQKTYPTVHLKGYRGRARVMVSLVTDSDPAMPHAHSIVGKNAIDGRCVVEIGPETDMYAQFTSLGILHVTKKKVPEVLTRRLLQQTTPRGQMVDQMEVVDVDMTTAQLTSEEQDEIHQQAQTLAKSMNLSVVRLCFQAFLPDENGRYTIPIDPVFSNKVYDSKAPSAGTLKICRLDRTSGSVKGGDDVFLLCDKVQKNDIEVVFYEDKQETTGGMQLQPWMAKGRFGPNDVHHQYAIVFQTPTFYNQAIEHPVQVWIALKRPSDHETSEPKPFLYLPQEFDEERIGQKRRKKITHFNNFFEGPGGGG

The list shows a part of the results, in another mix than the full data. The list includes weakly bound sequences.

With “CCGATTAACATCACCAGGGTCCTTGATGTTAATCGGGTCTTGATTCGCTTGACGCTGCTG”, the binding signal with GST-Ap-NF-kB RHD was -0.0562 z-score; in assay [1] it was -1.07 z-score; with GST-Co-NF-kB, 0.0911 z-score; in the assay with GST-Dm-Relish, 0.09 z-score; in the assay with GST-Aq-NF-kB, 0.0627 z-score.
With “CCGATTAACATCAGCTGGGCAGTTGATGTTAATCGGGTCTTGATTCGCTTGACGCTGCTG”, the binding signal is -0.305 z-score with GST-Ap-NF-kB RHD; -0.721 z-score in assay [1]; -0.716 z-score with GST-Co-NF-kB; -0.745 z-score with GST-Dm-Relish; -0.362 z-score with GST-Aq-NF-kB.
For “CCGATTAACATCAACCAAGCTTGTGATGTTAATCGGGTCTTGATTCGCTTGACGCTGCTG”, in that order: -0.699 z-score, -0.451 z-score, -0.117 z-score, -0.603 z-score and -0.699 z-score.
In the case of “CCGATTAACATCATACTGGGCGCTGATGTTAATCGGGTCTTGATTCGCTTGACGCTGCTG”, the binding signal with GST-Ap-NF-kB RHD was 0.205 z-score; in assay [1] it was -0.657 z-score; with GST-Co-NF-kB it was -0.143 z-score; with GST-Dm-Relish, -0.501 z-score; in the assay with GST-Aq-NF-kB, -0.253 z-score.
As for “CCGATTAACATCAAAATTTCCATTGATGTTAATCGGGTCTTGATTCGCTTGACGCTGCTG”, the binding signal with GST-Ap-NF-kB RHD was -0.22 z-score; in assay [1], -0.35 z-score; with GST-Co-NF-kB, -0.152 z-score; with GST-Dm-Relish it was 0.93 z-score; in the assay with GST-Aq-NF-kB, 0.826 z-score.
On to “CCGATTAACATCAGGAGTGCCCATGATGTTAATCGGGTCTTGATTCGCTTGACGCTGCTG”, for which the binding signal is 0.388 z-score in the assay with GST-Ap-NF-kB RHD; -0.127 z-score in assay [1]; 0.284 z-score in the assay with GST-Co-NF-kB; -0.263 z-score in the assay with GST-Dm-Relish; 0.0806 z-score in the assay with GST-Aq-NF-kB.
As to “CCGATTAACATCAGCGAAATTCCTGATGTTAATCGGGTCTTGATTCGCTTGACGCTGCTG”, the binding signal was -0.206 z-score with GST-Ap-NF-kB RHD; -0.356 z-score in assay [1]; -0.509 z-score in the assay with GST-Co-NF-kB; 0.315 z-score with GST-Dm-Relish; 0.273 z-score in the assay with GST-Aq-NF-kB.
For “CCGATTAACATCAAGAAATTCCATGATGTTAATCGGGTCTTGATTCGCTTGACGCTGCTG”, the binding signal in the assay with GST-Ap-NF-kB RHD is -0.642 z-score; in assay [1], 0.00454 z-score; with GST-Co-NF-kB, 0.0582 z-score; with GST-Dm-Relish it was 0.875 z-score; with GST-Aq-NF-kB it was 0.598 z-score.
On the same counts, the results for “CCGATTAACATCAGGATTTTACATGATGTTAATCGGGTCTTGATTCGCTTGACGCTGCTG” are -0.176 z-score, -0.0838 z-score, -0.256 z-score, 3.35 z-score and 0.547 z-score.
